SMILES strings stand for the structures. Several values for one entry are separate records, joined by “and”; a condition that tells them apart may be missing. Equal values may be shown once. The whole screen tested about 48,000 compounds, of which about 1,200 (2.5%) were called active. Inconclusive results (about 2%) are left out.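 How the source made its calls: active means activation of at least 60% and not above a set upper limit (about 1 call in 100 departs from these limits); inconclusive means activation of 40% to 60%, or above that upper limit; inactive means activation under 40%.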 The list shows a part of the results.

This test concerns the target Probable G-protein coupled receptor 32 (Homo sapiens) (UniProt O75388). The test can be described thus: qHTS for Agonists of Human Resolvin D1 Receptor DRV1. Further: 0% is about no effect. Particulars: CHO-K1 GPR32 beta-arrestin PathHunter luminescence, 90 min; at 76.9 µM; hits give high values; zero percent set by DMSO-only wells. A digest of the protocol: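 PathHunter beta-arrestin recruitment in CHO-K1 cells stably expressing ProLink-tagged GPR32. Cells were exposed to compound for 90 min at 37 C, then chemiluminescence was read after 1 h detection at ambient temperature; DMSO served as basal control.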
UniProt O75388, sequence (O75388 whole entry, looked up): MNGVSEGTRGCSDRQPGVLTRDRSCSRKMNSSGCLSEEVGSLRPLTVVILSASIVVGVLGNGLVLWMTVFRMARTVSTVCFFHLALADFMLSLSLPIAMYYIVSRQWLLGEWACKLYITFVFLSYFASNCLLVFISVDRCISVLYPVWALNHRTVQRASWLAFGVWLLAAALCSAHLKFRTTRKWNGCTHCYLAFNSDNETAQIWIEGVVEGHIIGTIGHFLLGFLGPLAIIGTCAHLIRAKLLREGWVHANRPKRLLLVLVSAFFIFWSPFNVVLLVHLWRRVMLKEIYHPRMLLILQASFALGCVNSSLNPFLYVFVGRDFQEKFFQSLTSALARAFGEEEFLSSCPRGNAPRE
On the technique in general: In qHTS, concentration-response curves come from the screen itself.
`COc1ccc(N2CC(NC(=O)Cc3cccs3)CC2=O)cc1OC` (stereo not given): the activation is inactive: -1.95%.

Regarding `COc1ccc(C2CC(=O)Oc3c2c(=O)n(C)c2ccccc32)c(OC)c1OC` (stereo not given), the activation was inactive: 3.13%.

For the molecule `O=C(COc1ccccc1)Nc1ccc2nc(SCC(=O)N3CCCC3)sc2c1`, the activation was inactive: 3.22%.

Regarding `CCOc1ccc(NC(=O)CS(=O)(=O)Cc2nc(-c3ccc(C)cc3)oc2C)cc1`, the activation is inactive: -4.62%.

`Fc1ccc(N2CCN(c3ncnc4c3nc3n4CCCC3)CC2)cc1`: the activation is inactive: 19.8%.

Regarding `COc1ccc(OC)c2sc(N(CCCN(C)C)C(=O)c3ccco3)nc12`, the activation was inactive: 9.87%.

In the case of `CCCCOc1ccc(CC(=O)NO)cc1`, the activation is inactive: 25.3%.

For the molecule `CC(=O)OC(C)C[N+](C)(C)C` (stereo not given), the activation was inactive: -6.32% and inactive: 7.16%.

In the case of `CN(C)c1ccc(/C=C2\C(=O)Nc3ccccc32)cc1`, the activation was inactive: -33.3%.

Consider `Cc1ccccc1CNC(=O)CCSCc1cnn(-c2ccccc2)c1-n1cccc1`, for which the activation was inactive: -13.7%.

As to `CCOC(=O)c1ccc(NC(=O)c2ccc(-c3cccc(Cl)c3C)o2)cc1`, the activation was inactive: -6.56%.

Turning to `CCOc1ccc(CCNC(=O)c2cc3c(-c4ccccc4F)nn(C)c3s2)cc1OCC`, the activation is inactive: 16%.

`COc1ccc(C2c3c(-c4ccc(F)cc4)n[nH]c3C(=O)N2c2ccccc2)cc1OC` (stereo not given): the activation was inactive: 0.77%.

As to `Oc1c(Cl)cc(Cl)cc1Sc1cc(Cl)cc(Cl)c1O`, the activation was active: 80.5%.

As for `O=c1c2oc3ccccc3c2ncn1Cc1ccc(Br)cc1`, the activation is inactive: 3.59%.

With `COc1ccc(C2c3c(oc4ccccc4c3=O)C(=O)N2c2nc(C)c(C)s2)cc1` (stereo not given), the activation is inactive: -4.34%.

As for `C=CCc1ccccc1OCC(O)CNC(C)C` (stereo not given), the activation is inactive: -6.54% and inactive: -5%.

On to `CCC(=O)N1CCc2cc(S(=O)(=O)NC(C(=O)NCCc3ccc(C)cc3)C(C)C)ccc21` (stereo not given), for which the activation was inactive: -8.05%.

As for `CSc1cccc(NC(=O)CN(C)S(=O)(=O)c2ccc3c(c2)CCCN3C(C)=O)c1`, the activation was inactive: 32.6%.

As for `CCCOc1cccc(C2c3c(oc4cc(C)c(C)cc4c3=O)C(=O)N2CCCN2CCOCC2)c1` (stereo not given), the activation is inactive: 6.85%.

For `CCOc1ccccc1C(=O)N1CCCCC1CCN1CCOCC1` (stereo not given), the activation is inactive: -4.6%.

`Cc1ccc(-c2nc3cc(NC(=O)c4cc(Br)ccc4Cl)ccc3o2)cc1`: the activation was inactive: -4.52%.

On to `COCc1cc(C)n(CC(=O)Nc2cccc(C(C)=O)c2)c(=O)c1C#N`, for which the activation is inactive: 12%.

For `Cc1ccc(C)c(C(=O)CSc2nc3cc(C(=O)NC4CCCC4)ccc3c(=O)n2CC2CCCO2)c1` (stereo not given), the activation was inactive: -2.99%.

As for `Cc1ccc(-c2n[nH]c3c2C(c2cccs2)N(c2ccc(Cl)cc2)C3=O)cc1` (stereo not given), the activation was inactive: 0.874%.

These data come from PubChem BioAssay AID1346428 (National Center for Advancing Translational Sciences (NCATS), 2018).
